Test results as given in US10294303B2, “Method of treating or ameliorating metabolic disorders using binding proteins for gastric inhibitory peptide receptor (GIPR) in combination with GLP-1 agonists” (AMGEN INC., priority 2015, dated 2019).

Legend:
[1] = test system: C57BL/6 Diet-Induced Obese mice; test: Chronic treatment of diet induced obese mice with GIPR antibody 5G12.006; assay type: in vivo, mouse; settings: DIO mice dosed each week for 4 weeks
Experimental: The study design is outlined in FIG. 18. Male C57BL/6 Diet-Induced Obese mice (Jackson Lab), 18 weeks old at start (on high fat diet for 12 weeks) were randomized based on body weight. Mice were dosed each week for 4 weeks. Body weights were recorded twice a week; not fasted glucose measured on day 18 and fasted insulin measured on day 29. Terminal blood collected for measurement of total cholesterol, and triglycerides. Intraperitoneal glucose tolerance test (IPGTT) was performed on day 25 with 4 hour fast with 1 g/kg of glucose. After 4 weeks, study was terminated following a 4 hour fast. Serum samples were collected and livers were weighed. Blood was collected from tail vein or cardiac puncture at termination. Serum samples were obtained by centrifugation of blood collection tubes at 10000 rpm. Serum insulin levels were determined by using mouse high range insulin ELISA (ALPCO Diagnostics). The triglyceride levels were measured using an Infinity triglyceride assay kit (Thermo Scientific). Total cholesterol was measured using an Infinity total cholesterol kit (Thermo Scientific). At termination, liver and epididymal fat were isolated and weighed using a balance.

[2] = test system: C57BL/6 DIO mice; test: Mouse pharmacodynamic assay to test GIPR antibody 5G12.006; assay type: in vivo
Experimental: FIG. 16 provides an overview of the mouse pharmacodynamic assay to test anti-GIPR Antibodies. Male C57BL/6 DIO mice at 16 weeks old were purchased from Jackson laboratory. After arrival, mice were single housed and continued on high fat diet (60 kcal % fat, Research diet) for 2 weeks before pharmacological study. Four days before the start of treatments, 4 h fasting glucose and insulin were measured. Body weight was recorded twice a week during the week before the treatments start and the day of start. […] All treatments were administrated once a week intraperitoneally for four weeks. Body weight was measured twice a week.

B1: 5G12.006: anti-GIPR antibody, 5G12 family; binds to both murine and human GIPR (antibody)
heavy: QVQLVESGGGVVQPGRSLRLSCTASGFTFSSYGIHWVRQAPGKGLEWVAVIWYDGSNKFHADSVKGRFTISRDNSKNTLYLQMNSLRAEDSAMYFCARGKVAGMPEAFEIWGQGTKVTVSSASTKGPSVFPLAPSSKSTSGGTAALGCLVKDYFPEPVTVSWNSGALTSGVHTFPAVLQSSGLYSLSSVVTVPSSSLGTQTYICNVNHKPSNTKVDKKV[human IgG1 Fc with R292C N297G V302C (EU numbers) not written out]
light: DIQLTQSPSSLSASVGDRVTITCRASQTISRFLNWYQQKPGKAPELLIYVASSLQSGVPSRFSGSGSGTDFTLTISSLQPEDFATYYCQQSYSTLISFGQGTKLEITRTVAAPSVFIFPPSDEQLKSGTASVVCLLNNFYPREAKVQWKVDNALQSGNSQESVTEQDSKDSTYSLSSTLTLSKADYEKHKVYACEVTHQGLSSPVTKSFNRGEC
With B1 the body weight gain ([1]; FIG. 19) was “reduced body weight gain”, the liver weights ([1]; FIG. 22) was “lower liver weights” and the “glucose tolerance (IPGTT)” value ([1]; day 25, 4 hour fast, 1 g/kg glucose, FIG. 20) was “improved glucose tolerance”. For the same molecule, the insulin levels ([1]; fasted, day 29, FIG. 21B) was “lower”, the glucose levels ([1]; not fasted, day 18, FIG. 21A) was “lower glucose” and the total cholesterol levels ([1]; terminal blood, FIG. 23A) was “Lower”. For the same molecule, the triglyceride levels ([1]; terminal blood, FIG. 23B) was “Lower”, the GIP glucose levels ([2]; FIG. 17A) was “Antagonized” and the “GIP induced insulin secretion” value ([2]; FIG. 17B) was “Antagonized”.
